Measurements taken from the supplement of paper PMC4604168 (melanoma cell lines).
The other results are listed elsewhere or left out. Single values are uncertain, as repeats are few or missing.

Assays:
Test in all cases: cell count relative to DMSO control; melanoma cells; higher = more viable cells
Conditions in all cases: library dose: low library concentration; 72 h
MZ2-MEL = system: MZ2-MEL
MeWo = system: MeWo
RPMI7951 = system: RPMI7951
RVH-421 = system: RVH-421
SkMel28 = system: SkMel28
SkMel2 = system: SkMel2
SkMel30 = system: SkMel30
UACC62 = system: UACC62
SkMel5 = system: SkMel5
UACC257 = system: UACC257
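Further: cell number obtained by counting DAPI-stained nuclei in high-throughput microscope images with image analysis software, screen run in 1,536-well plates.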

Row | SMILES | cell count (MZ2-MEL) | cell count (MeWo) | cell count (RPMI7951) | cell count (RVH-421) | cell count (SkMel28) | cell count (SkMel2) | cell count (SkMel30) | cell count (UACC62) | cell count (SkMel5) | cell count (UACC257)
1 | COc1cc([C@@H]2c3cc4c(cc3[C@@H](O[C@@H]3O[C@@H]5CO[C@@H](C)O[C@H]5[C@H](O)[C@H]3O)[C@H]3COC(=O)[C@H]23)OCO4)cc(OC)c1O [etoposide] + COc1ccc(Cl)c(Nc2nc3ccccc3nc2NS(=O)(=O)c2cccc(NC(=O)C(C)(C)N)c2)c1 [XL147] (first compound 0.02 µM, partner dose 0.8 µM) | 88.1% | 83.9% | 106% | 88.6% | 101% | 91.4% | 85.7% | 81.6% | – | –
2 | COc1cc([C@@H]2c3cc4c(cc3[C@@H](O[C@@H]3O[C@@H]5CO[C@@H](C)O[C@H]5[C@H](O)[C@H]3O)[C@H]3COC(=O)[C@H]23)OCO4)cc(OC)c1O [etoposide] + C=C(c1ccc(C(=O)O)cc1)c1cc2c(cc1C)C(C)(C)CCC2(C)C [Bexarotene] (first compound 0.02 µM, partner dose 2 µM) | 96.3% | 83.1% | 87.2% | 88.4% | 69.6% | 85.9% | 99.8% | 69.7% | – | –
3 | C[C@]1(O)C[C@@H](c2nc(-c3ccc4ccc(-c5ccccc5)nc4c3)c3c(N)nccn32)C1 + Cn1cc(/C=C2\C(=O)Nc3cccnc32)c2ccccc21 [GW441756] (first compound 0.4 µM, partner dose 0.4 µM) | – | 93.1% | 99.4% | 86.3% | 74.4% | – | 81.3% | 92.8% | 77.5% | 62.8%
4 | CCN(CC)CCNC(=O)c1c(C)[nH]c(/C=C2\C(=O)Nc3ccc(F)cc32)c1C [sunitinib] + CCCS(=O)(=O)Nc1ccc(F)c(C(=O)c2c[nH]c3ncc(Cl)cc23)c1F [PLX4720] (first compound 0.4 µM, partner dose 0.08 µM) | 88.2% | 83.6% | 98.6% | 82.5% | 83.8% | 112% | 92.5% | 53.5% | – | –
5 | Cn1cnc2c(F)c(Nc3ccc(Br)cc3Cl)c(C(=O)NOCCO)cc21 [selumetinib] + C=C(c1ccc(C(=O)O)cc1)c1cc2c(cc1C)C(C)(C)CCC2(C)C [Bexarotene] (first compound 0.015 µM, partner dose 2 µM) | – | 83.7% | 100% | 84.6% | 72.3% | – | 72.3% | 65.1% | – | –
6 | COc1cc([C@@H]2c3cc4c(cc3[C@@H](O[C@@H]3O[C@@H]5CO[C@@H](C)O[C@H]5[C@H](O)[C@H]3O)[C@H]3COC(=O)[C@H]23)OCO4)cc(OC)c1O [etoposide] + CO[C@H]1C[C@@H]2CC[C@@H](C)[C@@](O)(O2)C(=O)C(=O)N2CCCC[C@H]2C(=O)O[C@H]([C@H](C)C[C@@H]2CC[C@@H](OCCO)[C@H](OC)C2)CC(=O)[C@H](C)/C=C(\C)[C@@H](O)[C@@H](OC)C(=O)[C@H](C)C[C@H](C)/C=C/C=C/C=C/1C [everolimus] (first compound 0.02 µM, partner dose 0.02 µM) | 69.1% | 69.9% | 81.6% | 86.5% | 52.8% | – | 61.6% | 54.6% | – | –
7 | COc1cc([C@@H]2c3cc4c(cc3[C@@H](O[C@@H]3O[C@@H]5CO[C@@H](C)O[C@H]5[C@H](O)[C@H]3O)[C@H]3COC(=O)[C@H]23)OCO4)cc(OC)c1O [etoposide] + Cc1cn(-c2cc(NC(=O)c3ccc(C)c(Nc4nccc(-c5cccnc5)n4)c3)cc(C(F)(F)F)c2)cn1 [nilotinib] (first compound 0.02 µM, partner dose 0.2 µM) | – | 87.5% | 89% | 80.5% | 78.6% | – | 92.8% | 86.2% | – | –
8 | COc1cc([C@@H]2c3cc4c(cc3[C@@H](O[C@@H]3O[C@@H]5CO[C@@H](C)O[C@H]5[C@H](O)[C@H]3O)[C@H]3COC(=O)[C@H]23)OCO4)cc(OC)c1O [etoposide] + CCCS(=O)(=O)Nc1ccc(F)c(C(=O)c2c[nH]c3ncc(Cl)cc23)c1F [PLX4720] (first compound 0.02 µM, partner dose 0.08 µM) | – | 95.1% | 111% | 77.3% | 120% | – | 106% | 80.3% | – | –
9 | C[C@]1(O)C[C@@H](c2nc(-c3ccc4ccc(-c5ccccc5)nc4c3)c3c(N)nccn32)C1 + CO[C@H]1C[C@@H]2CC[C@@H](C)[C@@](O)(O2)C(=O)C(=O)N2CCCC[C@H]2C(=O)O[C@H]([C@H](C)C[C@@H]2CC[C@@H](OCCO)[C@H](OC)C2)CC(=O)[C@H](C)/C=C(\C)[C@@H](O)[C@@H](OC)C(=O)[C@H](C)C[C@H](C)/C=C/C=C/C=C/1C [everolimus] (first compound 0.4 µM, partner dose 0.02 µM) | 52% | 63.7% | 76.5% | 85.9% | 38.5% | – | 40.8% | 48.6% | – | –
10 | Cn1cnc2c(F)c(Nc3ccc(Br)cc3Cl)c(C(=O)NOCCO)cc21 [selumetinib] + O=C(O)c1ccc2c(c1)nc(Nc1cccc(Cl)c1)c1ccncc12 [CX4945] (first compound 0.015 µM, partner dose 0.4 µM) | – | 86.1% | 102% | 90.6% | 94.9% | – | 53.1% | 71.4% | – | –
11 | COc1cc([C@@H]2c3cc4c(cc3[C@@H](O[C@@H]3O[C@@H]5CO[C@@H](C)O[C@H]5[C@H](O)[C@H]3O)[C@H]3COC(=O)[C@H]23)OCO4)cc(OC)c1O [etoposide] + COc1ccc2c(c1)CCC1C2CCC2(C)C(NCCCCCCN3C(=O)C=CC3=O)CCC12 [U73122] (first compound 0.02 µM, partner dose 0.4 µM) | 90.5% | 87% | 99.3% | – | 102% | 92.4% | 92.4% | 74.8% | 89.2% | 71.6%
12 | Cn1cnc2c(F)c(Nc3ccc(Br)cc3Cl)c(C(=O)NOCCO)cc21 [selumetinib] + OCCn1cc(-c2cnc3nnn(Cc4ccc5ncccc5c4)c3n2)cn1 [PF04217903] (first compound 0.015 µM, partner dose 1 µM) | – | 86.3% | 113% | 80.2% | 72.8% | – | 73.8% | 76.6% | 87% | 73.9%
13 | COc1cc([C@@H]2c3cc4c(cc3[C@@H](O[C@@H]3O[C@@H]5CO[C@@H](C)O[C@H]5[C@H](O)[C@H]3O)[C@H]3COC(=O)[C@H]23)OCO4)cc(OC)c1O [etoposide] + O=c1cc(-c2cccc3c2Sc2ccccc2S3)oc(N2CCOCC2)c1 [KU55933] (first compound 0.02 µM, partner dose 1 µM) | – | 90.4% | 99.2% | 123% | 117% | – | 98.6% | 102% | 96.7% | 97.8%
14 | Cn1cnc2c(F)c(Nc3ccc(Br)cc3Cl)c(C(=O)NOCCO)cc21 [selumetinib] + COCC[n+]1c2c(n(Cc3cnccn3)c1C)C(=O)c1ccccc1C2=O [YM155] (first compound 0.015 µM, partner dose 0.0004 µM) | 72.1% | 87.9% | 88.2% | 69.6% | 82.6% | – | 82.9% | 84.2% | – | –
15 | CCN(CC)CCNC(=O)c1c(C)[nH]c(/C=C2\C(=O)Nc3ccc(F)cc32)c1C [sunitinib] + O=C(Nc1ccccc1)c1cc([N+](=O)[O-])ccc1Cl [GW9662] (first compound 0.4 µM, partner dose 2 µM) | – | 83.3% | 105% | 107% | 85.2% | – | 59.7% | 90.6% | 117% | 95.3%
16 | COc1cc([C@@H]2c3cc4c(cc3[C@@H](O[C@@H]3O[C@@H]5CO[C@@H](C)O[C@H]5[C@H](O)[C@H]3O)[C@H]3COC(=O)[C@H]23)OCO4)cc(OC)c1O [etoposide] + c1cc(-c2cnn3cc(-c4ccc(OCCN5CCCCC5)cc4)cnc23)ccn1 [Dorsomorphin] (first compound 0.02 µM, partner dose 0.4 µM) | 104% | 93.6% | 105% | 118% | 105% | 92.7% | – | 104% | 79.8% | 92.3%
17 | Cn1cnc2c(F)c(Nc3ccc(Br)cc3Cl)c(C(=O)NOCCO)cc21 [selumetinib] + COc1cc(N2CCC(N3CCN(C)CC3)CC2)ccc1Nc1ncc(Cl)c(Nc2ccccc2S(=O)(=O)C(C)C)n1 [NVP-TAE684] (first compound 0.015 µM, partner dose 0.08 µM) | – | 89.3% | 118% | 90.9% | 85.1% | 60% | 52.9% | 64.6% | 94.2% | 79.6%
18 | Cn1cnc2c(F)c(Nc3ccc(Br)cc3Cl)c(C(=O)NOCCO)cc21 [selumetinib] + CO[C@H]1C[C@@H]2CC[C@@H](C)[C@@](O)(O2)C(=O)C(=O)N2CCCC[C@H]2C(=O)O[C@H]([C@H](C)C[C@@H]2CC[C@@H](OCCO)[C@H](OC)C2)CC(=O)[C@H](C)/C=C(\C)[C@@H](O)[C@@H](OC)C(=O)[C@H](C)C[C@H](C)/C=C/C=C/C=C/1C [everolimus] (first compound 0.015 µM, partner dose 0.02 µM) | 70.9% | 68.4% | 82% | 73.5% | 49.5% | – | 46.3% | 43.5% | – | –
